The list shows a part of the results. These are noisy estimates, calculated here from bound and input reads.
What follows are sequences tested against T1, Pho4 (S. cerevisiae) (UniProt P07270) (assay: relative binding free energy (BET-seq); higher = weaker binding). Conditions: reference: library average.
T1 sequence: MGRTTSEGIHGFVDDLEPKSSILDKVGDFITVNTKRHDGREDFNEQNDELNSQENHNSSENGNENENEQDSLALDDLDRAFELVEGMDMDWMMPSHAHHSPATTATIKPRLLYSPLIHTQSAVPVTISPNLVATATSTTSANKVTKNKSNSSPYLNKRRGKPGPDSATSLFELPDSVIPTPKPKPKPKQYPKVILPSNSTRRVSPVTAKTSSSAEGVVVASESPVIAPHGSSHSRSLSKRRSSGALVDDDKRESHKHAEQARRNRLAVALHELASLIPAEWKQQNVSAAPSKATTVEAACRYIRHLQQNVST

Sequence | relative binding free energy
CTGGTCACGTGTGGGG | 0.08 kcal/mol
TTGTTCACGTGGGACA | 0.2 kcal/mol
GTGGACACGTGATGCG | 0.19 kcal/mol
GTCTTCACGTGTGTAT | 0.24 kcal/mol
AGAAGCACGTGAGCGG | 0.13 kcal/mol
GGTGACACGTGTTAGG | 0.06 kcal/mol
AATGTCACGTGATATA | 0.15 kcal/mol
AGGTACACGTGCGGTT | 0 kcal/mol
GGTACCACGTGATTGT | 0.11 kcal/mol
TTATCCACGTGGGCTT | -0.07 kcal/mol
TGGGTCACGTGCGGGG | 0.09 kcal/mol
CGGGTCACGTGGAAGA | 0.05 kcal/mol
ACGTACACGTGTGTTT | 0.09 kcal/mol
TAGTGCACGTGGTCGG | -0.12 kcal/mol
TGTCGCACGTGTGGCT | 0 kcal/mol
GTATGCACGTGGTTAA | -0.21 kcal/mol
TTAATCACGTGTAGAA | 0.16 kcal/mol
CTCGTCACGTGATGTT | 0.19 kcal/mol
GCTTTCACGTGGTTTA | 0.29 kcal/mol
CTTTGCACGTGAAGGG | 0.27 kcal/mol
AGATACACGTGTAGGT | 0.1 kcal/mol
GTTAACACGTGGTGAT | -0.03 kcal/mol
ATGGTCACGTGTCTCA | 0.31 kcal/mol

Sequence | relative binding free energy
TGTCGCACGTGTACTG | -0.04 kcal/mol
GTAGACACGTGTTATT | 0.06 kcal/mol
TTGTTCACGTGCGAGC | 0.51 kcal/mol
TGAATCACGTGTCTGG | 0.2 kcal/mol
TGGTACACGTGTGTTC | 0.22 kcal/mol
TGTGCCACGTGAGATG | 0.3 kcal/mol
GAGTTCACGTGGTAAT | 0.32 kcal/mol
ATTGTCACGTGGTTTT | 0.08 kcal/mol
ATCATCACGTGTTAGT | 0.14 kcal/mol
GATTGCACGTGTGTAA | 0 kcal/mol
AGGTTCACGTGGAAGA | 0.2 kcal/mol
TATGGCACGTGGAGTA | -0.16 kcal/mol
TTTGACACGTGGTATA | -0.07 kcal/mol
TTGTTCACGTGCCTGT | 0.1 kcal/mol
GTATTCACGTGTACTG | 0.33 kcal/mol
TCTGACACGTGTGGCG | 0.15 kcal/mol
CGGGTCACGTGGATTG | 0.08 kcal/mol
GTGGTCACGTGGCTTT | 0.11 kcal/mol
GGGGTCACGTGGGTTC | 0.06 kcal/mol
TGAGACACGTGTGGAA | 0.24 kcal/mol
GTGCGCACGTGTAGGC | -0.1 kcal/mol
AGTTGCACGTGTAGAT | 0.33 kcal/mol
TCGGGCACGTGAGGAT | 0.19 kcal/mol

Sequence | relative binding free energy
GCATTCACGTGTTATT | 0.21 kcal/mol
AAAGTCACGTGGTTCG | 0.08 kcal/mol
ACGGGCACGTGAGGGC | 0.07 kcal/mol
GGGCTCACGTGGCTGT | 0.27 kcal/mol
AGTAGCACGTGACGGG | -0.01 kcal/mol
CAATTCACGTGTTTGT | 0.28 kcal/mol
TTCTGCACGTGGGAGC | -0.01 kcal/mol
ATTTTCACGTGTGGGA | 0.24 kcal/mol
TTTCGCACGTGCTTTG | 0.01 kcal/mol
ATCCTCACGTGTTGTT | 0.18 kcal/mol
GTGAGCACGTGGGAGG | -0.15 kcal/mol
ATACGCACGTGGTTGT | -0.22 kcal/mol
TGCGGCACGTGTTTTT | 0.07 kcal/mol
TACAACACGTGTGGTG | 0 kcal/mol
GAGGTCACGTGTGCTG | 0.08 kcal/mol
TAGGTCACGTGTCATA | 0.17 kcal/mol
AGCGGCACGTGTGTGC | -0.2 kcal/mol
CGCTTCACGTGTAGTG | 0.12 kcal/mol
GAATTCACGTGAGGTG | 0.4 kcal/mol
CCGTTCACGTGTTTAG | 0.38 kcal/mol
AATATCACGTGGTAGG | 0.07 kcal/mol
TTCAACACGTGTGAGT | 0 kcal/mol
TGTATCACGTGTGATG | 0.15 kcal/mol

Sequence | relative binding free energy
ACGGTCACGTGGGTAG | 0.07 kcal/mol
AGTATCACGTGTATTC | 0.09 kcal/mol
GGTAACACGTGTGCTT | 0.2 kcal/mol
GGGTGCACGTGGGTTC | -0.14 kcal/mol
GGTTACACGTGGAGGC | 0.24 kcal/mol
TATGGCACGTGGGTCT | -0.21 kcal/mol
CCTTGCACGTGTGGTG | 0.12 kcal/mol
AATTGCACGTGGGTTA | -0.19 kcal/mol
GTTTACACGTGCGTGA | 0.1 kcal/mol
CTAGCCACGTGTGTGG | -0.14 kcal/mol
TTAATCACGTGTGGAC | 0.34 kcal/mol
AATGACACGTGGGTTC | 0.01 kcal/mol
CGGATCACGTGTTGGT | 0.19 kcal/mol
TTTAACACGTGGAGGC | 0.23 kcal/mol
GCTGACACGTGTTTGG | -0.06 kcal/mol
TAGGTCACGTGGCAAG | -0.03 kcal/mol
GGGCGCACGTGCGATG | -0.08 kcal/mol
TCGTGCACGTGAACGG | 0.21 kcal/mol
GCAGTCACGTGTGTTA | 0.28 kcal/mol
TGTGTCACGTGGATAA | 0.1 kcal/mol
GTAGCCACGTGGTTGT | -0.06 kcal/mol
CGCTTCACGTGTTAGG | 0.36 kcal/mol
TAGGGCACGTGGAAAA | 0.08 kcal/mol

Sequence | relative binding free energy
GGTAGCACGTGGGCTT | -0.2 kcal/mol
TTTTGCACGTGGTCTT | -0.09 kcal/mol
TTGGTCACGTGTCATT | 0.08 kcal/mol
TCTATCACGTGTTTAG | 0.12 kcal/mol
GTTATCACGTGATATG | 0.32 kcal/mol
TAGTTCACGTGTACGG | 0.4 kcal/mol
AGAGTCACGTGATGGC | 0.29 kcal/mol
CTTCTCACGTGTTGGT | 0.26 kcal/mol
TTGGTCACGTGCGCGT | -0.07 kcal/mol
CATGGCACGTGGGGAT | -0.19 kcal/mol
TGTGTCACGTGGCCTA | 0.11 kcal/mol
GTCATCACGTGCGTTT | 0.13 kcal/mol
AAGGTCACGTGAAGGG | 0.32 kcal/mol
TGCTTCACGTGAAGCT | 0.4 kcal/mol
TCATGCACGTGGAGGT | -0.12 kcal/mol
GTTAACACGTGCAGGT | 0.05 kcal/mol
TTTGGCACGTGTCAGT | -0.12 kcal/mol
TTAGACACGTGTGCTG | -0.03 kcal/mol
TGATGCACGTGAAGTA | 0.22 kcal/mol
CAGTGCACGTGGTTAG | -0.09 kcal/mol
GTTCGCACGTGGTAGA | -0.02 kcal/mol
TGGTTCACGTGTGTGT | 0.31 kcal/mol
TTGTTCACGTGTGATG | 0.25 kcal/mol

From the BET-seq Pho4 binding data (Le et al. 2018)
